Consider 49 compounds from publication PMC6919601, “Identification of Plasmodium dipeptidyl aminopeptidase allosteric inhibitors by high throughput screening” (PLoS ONE, 2019).

About 230 (0.21%) of roughly 110,000 compounds showed an effect of 50% or more. The list shows a part of the results.
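Note: 30 min substrate incubation versus DMSO and 10 µM JCP410 controls.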

In the assay the target is DPAP1 (Plasmodium falciparum, UniProt Q8IIJ9). The assay is described as follows: primary screen, percent inhibition; read by cleavage of a fluorogenic dipeptide substrate; higher = more effect of the substance. Also noted: species or system P. falciparum D10 trophozoite lysates; single well.
Sequence of DPAP1 (Q8IIJ9 whole entry, looked up): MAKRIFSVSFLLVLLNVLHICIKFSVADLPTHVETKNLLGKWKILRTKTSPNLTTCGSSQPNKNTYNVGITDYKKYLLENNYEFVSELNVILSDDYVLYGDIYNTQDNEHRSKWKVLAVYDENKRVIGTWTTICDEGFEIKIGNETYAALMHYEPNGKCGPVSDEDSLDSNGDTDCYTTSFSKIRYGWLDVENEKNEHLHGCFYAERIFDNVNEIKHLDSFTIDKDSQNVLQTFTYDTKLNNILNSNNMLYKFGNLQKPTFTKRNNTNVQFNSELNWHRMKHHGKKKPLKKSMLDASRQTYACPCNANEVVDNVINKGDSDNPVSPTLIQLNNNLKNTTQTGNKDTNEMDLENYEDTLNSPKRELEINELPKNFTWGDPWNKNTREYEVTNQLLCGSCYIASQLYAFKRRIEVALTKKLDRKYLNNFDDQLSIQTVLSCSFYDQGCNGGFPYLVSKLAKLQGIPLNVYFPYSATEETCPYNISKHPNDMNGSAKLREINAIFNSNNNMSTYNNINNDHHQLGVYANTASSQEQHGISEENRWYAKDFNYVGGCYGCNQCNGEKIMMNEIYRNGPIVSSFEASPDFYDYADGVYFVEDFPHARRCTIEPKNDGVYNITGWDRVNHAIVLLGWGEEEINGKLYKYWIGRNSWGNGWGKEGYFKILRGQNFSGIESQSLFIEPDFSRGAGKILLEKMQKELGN
Turning to `Cc1cccn2c(=O)c(/C=C(\C#N)C(=O)N3CCCCC3)c(Oc3ccc(C(C)(C)C)cc3)nc12`, the “% Inhibition @ 10 uM” value was 3.63%.

With `Cc1cccc(NC(=O)C2CCN(S(=O)(=O)c3ccc(Br)cc3)CC2)c1C`, the “% Inhibition @ 10 uM” value is -1.17%.

Regarding `CC(C)N(C(=O)c1ccc(C(=O)Nc2ccc(Br)cc2)cc1)C(C)C`, the “% Inhibition @ 10 uM” value is on record as -11.9%.

For `COc1ccc(OC)c(N(CC(=O)NC2CCCCC2)S(=O)(=O)c2ccc(C)cc2)c1`, the “% Inhibition @ 10 uM” value is reported as 0.189%.

With `Cc1ccc(-c2ncccc2O)cc1[N+](=O)[O-]`, the “% Inhibition @ 10 uM” value came out at 7.58%.

Regarding `Cn1cc(C(=O)N2CCc3ccccc32)cn1`, the “% Inhibition @ 10 uM” value is -6.25%.

In the case of `CCC1CCCCN1Cc1nc2c(c(=O)n(C)c(=O)n2C)n1CCOC` (stereo not shown), the “% Inhibition @ 10 uM” value is reported as -1.43%.

As to `Cc1c(Cl)c(Cl)nc(Cl)c1C(=O)NC(=O)NCc1ccccc1Cl`, the “% Inhibition @ 10 uM” value is recorded as 2.8%.

Regarding `COc1cc(OC)c(/C=C2\SC(=O)N(CC(=O)Nc3ccccc3F)C2=O)c(OC)c1`, the “% Inhibition @ 10 uM” value is -7.09%.

As to `COc1cc(/C(C#N)=C/c2cccc(Br)c2)c([N+](=O)[O-])cc1OC`, the “% Inhibition @ 10 uM” value is recorded as -0.771%.

With `O=C(O)C12CC3CC(CC(C3)C1=O)C2`, the “% Inhibition @ 10 uM” value was 0.968%.

With `Cc1cc(/C=C2\C(=N)N3N=C(S(C)(=O)=O)SC3=NC2=O)c(C)n1-c1cccc2ccccc12`, the “% Inhibition @ 10 uM” value is given as -3.39%.

For the compound `O=C(Nc1cccc(Oc2ccc(C(=O)O)c(C(=O)O)c2)c1)c1ccc(F)cc1`, the “% Inhibition @ 10 uM” value was -0.822%.

As to `OCCN(Cc1ccccc1)Cc1ccsc1`, the “% Inhibition @ 10 uM” value was 1.74%.

For `Cc1ccc(S(=O)(=O)Nc2ccc(NC(=O)Nc3ccccc3)cc2)cc1`, the “% Inhibition @ 10 uM” value is recorded as -5.13%.

Turning to `CC1CCN(S(=O)(=O)c2ccc3c(ccn3CC(=O)NC3CCCCC3)c2)CC1`, the “% Inhibition @ 10 uM” value is recorded as -2.93%.

Consider `O=C(Nc1cccc(C(F)(F)F)c1)/C(=C\c1cccnc1)NC(=O)c1ccsc1`, for which the “% Inhibition @ 10 uM” value is recorded as 4.67%.

For the compound `COCCNC(=O)CCc1nnc2n(CCc3ccccc3)c(=O)c3ccccc3n12`, the “% Inhibition @ 10 uM” value was -0.692%.

Consider `COc1cc(N2CCCC2)c(OC)cc1/C=C1\SC(=O)N(C(C)C)C1=O`, for which the “% Inhibition @ 10 uM” value amounted to 3.35%.

As to `Cc1ccc(OCCCCCCc2c(C)n[nH]c2C)cc1`, the “% Inhibition @ 10 uM” value is 1.35%.

On to `CC1(c2cccc(OCc3cccc(Cl)c3)c2)NC(=O)NC1=O` (stereo not shown), for which the “% Inhibition @ 10 uM” value is recorded as -9.6%.

Turning to `O=C(CSc1nsc(SCC(=O)c2ccccc2)n1)c1ccccc1`, the “% Inhibition @ 10 uM” value was -9.18%.

In the case of `COc1ccc(-c2nc(SCC(=O)Nc3nccs3)c(-c3ccc(Cl)cc3)[nH]2)cc1`, the “% Inhibition @ 10 uM” value is listed as -1.58%.

Consider `CC1CCC(NC(=O)Nc2cn(C)c(=O)c3ccccc23)CC1` (stereo not shown), for which the “% Inhibition @ 10 uM” value was determined as 2.25%.

Take `O=C(NCCc1ccccc1)C1CCN(S(=O)(=O)c2ccc3[nH]c4c(c3c2)CCCCC4)CC1`: the “% Inhibition @ 10 uM” value is given as -3%.

As for `Cc1cc(C)c2ccc(=O)c(O)c-2o1`, the “% Inhibition @ 10 uM” value was 7.55%.

Take `CC(=O)N1C(=O)C2(C(C#N)=C(N)Oc3[nH]nc(-c4ccccn4)c32)c2ccccc21` (stereo not shown): the “% Inhibition @ 10 uM” value is on record as 2.46%.

Consider `Cc1cc(C)n2c(SCCO)nnc2n1`, for which the “% Inhibition @ 10 uM” value amounted to 6.52%.

On to `COc1ccccc1/C=C/c1ccc2c(c1)C(=O)c1ccccc1C2=O`, for which the “% Inhibition @ 10 uM” value is listed as 6.23%.

`Cc1cccc2sc(N(CCCN(C)C)C(=O)CCS(=O)(=O)c3ccccc3)nc12`: the “% Inhibition @ 10 uM” value is listed as -6.33%.

Regarding `Cc1ccc(OCCCn2nnc3sc(-c4ccccc4)cc3c2=O)cc1`, the “% Inhibition @ 10 uM” value is on record as 4%.

On to `Cc1nc(=O)c(-c2ccccc2)c(C)n1C1CC(C)(C)NC(C)(C)C1`, for which the “% Inhibition @ 10 uM” value stood at 2.57%.

Consider `CCN(CC)S(=O)(=O)c1ccc(OC)c([N+](=O)[O-])c1`, for which the “% Inhibition @ 10 uM” value turned out to be 1.44%.

As for `COc1ccc(CCNC(=O)c2nn(C)c3c2CS(=O)(=O)c2ccccc2-3)c(OC)c1`, the “% Inhibition @ 10 uM” value turned out to be 1.51%.

For `CN(CC(=O)Nc1ccc(Cl)cc1Cl)S(=O)(=O)c1ccc(F)cc1`, the “% Inhibition @ 10 uM” value is recorded as -0.891%.

In the case of `COc1ccc(C(=O)c2coc3ccc(O)c(CN4CCOCC4)c23)cc1`, the “% Inhibition @ 10 uM” value is -2.5%.

For the compound `Cc1ccc(-c2nc3nc(C)cc(N4CCN(c5ccccn5)CC4)n3n2)cc1`, the “% Inhibition @ 10 uM” value was determined as 0.128%.

For the compound `CC1=NN(C(=O)c2ccccc2O)C(O)(c2cccnc2)C1` (stereo not shown), the “% Inhibition @ 10 uM” value was -8.42%.

For `C=CCSc1nnc(-c2ccc(C)cc2)o1`, the “% Inhibition @ 10 uM” value was found to be 4.95%.

As to `CC(C)Oc1ccc(C(=O)Nc2cccc(O)c2)cc1`, the “% Inhibition @ 10 uM” value was 4.03%.

Take `Cc1cc(C)c2c(-n3cccc3)c(C(=O)NC3CCN(Cc4ccccc4)CC3)sc2n1`: the “% Inhibition @ 10 uM” value is -2.85%.

Regarding `CNC(C)C(=O)C12CC3CC(CC(C3)C1)C2` (stereo not shown), the “% Inhibition @ 10 uM” value is recorded as -1.77%.

Turning to `N#CCc1ccc(NC(=O)c2ccc3c(c2)OCO3)cc1`, the “% Inhibition @ 10 uM” value was -4.12%.

As for `N#Cc1c(C(F)(F)F)cc(-c2cccs2)nc1SCC(=O)Nc1ccccn1`, the “% Inhibition @ 10 uM” value amounted to 2.44%.

For the compound `CC(C)CCNC(=O)c1ccc(CSCc2ccccc2Cl)o1`, the “% Inhibition @ 10 uM” value is on record as 1.62%.

In the case of `CCn1cc(CNC(=O)c2cccc(Cl)c2)c(C)n1`, the “% Inhibition @ 10 uM” value is recorded as -1.96%.

For the compound `Cc1oc2ncn3c(C)nnc3c2c1C(=O)O`, the “% Inhibition @ 10 uM” value is -2.4%.

Take `CC1=C(C(=O)Nc2cc(C)ccn2)C(c2cnn(C)c2)C2=C(O)CCCC2=N1` (stereo not shown): the “% Inhibition @ 10 uM” value was -0.413%.

Turning to `Cc1nccc2nc(O)c(C(=O)NCCCSC3CCCCC3)cc12`, the “% Inhibition @ 10 uM” value was 3.93%.
